# The source gives no read counts; variants with many changes may rest on few reads.
# B1: CPEB3 Ribozyme (parent)
# chain: UAACAGGGGGCCACAGCAGAAGCGUUCACGUCGCAGCCCCUGUCAGAUUCUGGUGAAUCUGCGAAUUCUGCUGUAUAUCUC
# Variants of: B1
# Experiment: self-cleavage, relative activity (ratio to wild type); higher = more cleavage; in vitro, sequencing
# Outline: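 Relative activity compares each variant's cleaved/total read fraction with that of the unmutated ribozyme. To get these fractions, barcoded CPEB3 ribozyme libraries from rounds of error-prone PCR were transcribed with T7 RNA polymerase for 5 hours at 37°C and then given 15 min of DNase I treatment before EDTA was added. The RNAs were reverse transcribed with template switching and sequenced on Illumina, and DNA sequencing linked barcodes to variants. A minimum of 5 reads applied, and three batches were averaged.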
row,Variant,self-cleavage
1,UAACAGGGGGCCACCGCUGAGGCGUUCACGUCGCAGCCCCUGUCAGAUUCUGGUGAAUCUGCGGAUUCUGCCGUAUAUCUC,0.37
2,UAACAGGGGGCCACCGCAGAAGCGUUCUCGUCGCAGCCCCUGUCAGAUUCUGGUGAAUCUGCGGAUUCUGCUGUAUAUCUC,0.35
3,UAACAGGGGGCCACCGCAGAAGCGUUCUCGUCGCAGCCCCGGUCAGAUUCUGGUGAAUCUGCGAAUUCGGCUGUAUAUCUC,0.04
4,UAACAGGGGGCCACCGCAGAAGCGUUCACGUCGCGGCCCCUGUCAGAUUCUGGUGAACCUGCGAAUUCUGCUGUAUAUCUC,0.48
5,UAACAGGGGGCCACCGCAGAAGCGAUCACGUCGCAGCCCCUGUCUGAUUCUGGAGAAUCCGCGAAUUCUGCUGUAUAUCUC,0.09
6,UAACAGGGGGCCACCGAAGAAGCGUUCACGUCGCAGCCCCUGCCAGAUUCUGGUGAAUCUGCGAAUUCUGCUGUAUAUCCC,0.06
7,UAACAGGGGGCCACCGCAGAUGCGUACCCGUCGCAGCCCCUGUCCGAUUCUGGUGAAUCUGCGAAUUCUGCUUUAUAUCUC,0.06
8,UAACAGGGGGCCACCGUGGAAGCGUUCACGUCGCAGCCCCUGUCAGAUUCUGGUGAAUCUGCGAAUUCUGCUGUAUAUCUC,0.1
9,UAACAGGGGGCCACCGCAGAAGCGUUCACGUCGCAGCCCCUGUCUGAUUCUGGUGUAUCUGCGAAUUCUGCUGUAUAUCUC,0.13
10,UAACAGGGGGCCACCGCUGAAGCGUUCACGUCGCAGCUCCUGUCAGAUUCUGGUGAACCUGCGAAUUCUGCUGUAUAUCUC,0.05
11,UAACAGGGGGCCACCGCAGAGGCAUUCACGUCGCAGCCCCUGUCAGAUUCUCGUGAAUCCGCGAAUCCUGCUGUAUAUCUC,0.1
12,UAACAGGGGGCCACCGCAGAAGCAUUCGCGUCGGAGCCCCUGUCAGAUUCUGGUGAAUCUGCGAAUUCUGCUGUAUAUCUC,0.41
13,UAACAGGGGGCCACCGUAGAAGCGUUCACGUCGCAGCCCCUGCCAGAUUCUGGUGAAUCUGCAAAUUCUGCUGUAUGUCUC,0.16
14,UAACAGGGGGCCACCGCAGAUGCGUUCACGUCGCAGCCCCUGUCAGAUUCUGGUGAAUCAGCGAAUUCUGCUGUAUACCUC,0.07
15,UAACAGGGGGCCACCGCAGAGGCGUUCACGUCACAGCCCCUGACAGAUUCUGGUGAAUCUGCGAAUUCUGCUGUACAUCUC,0.14
16,UAACAGGGGGCCACCGCAGAAGCGUUCACGUUGCAGCCGCUGUCAGAUUCUGGUGAAUCUGCGAAUUCUGCUGUAUACCUC,0.06
17,UAACAGGGGGCCACCGCAGGAGCGUUCACGUCGCAGCCCCUGUCAGAUUCUCGUGAAUCUGCGAAUUCUGCUGUAUAUCAC,0.75
18,UAACAGGGGGCCACCGCAGAAGCGUUCACGUCGCAGCCCCUGUCAGAUUCUGGUGAAUCUGCGGAUUCUGCUGUAUAUCAC,0.5
19,UAACAGGGGGCCACCGCAGAGGCGUUCACGUCGCAGCCCCUGUCUGAUUCUGGUGAAUCAGCGAAUUCUGCUGUAUAUCUC,0.22
20,UAACAGGGGGCCACCGCAGGAGCGUUCACGUCGCAGCCCCUGUCAGAUUCUGGUGAAUCUGCGAAUUCCGCUGUAUACCUC,0.2
21,UAACAGGGGGCCACCGCAGAAGCGUUCAUGUCGCAGCCCCUGUCAGACUCUGGUGAAUCUGCGAAUUCUGCUGUAUAUCUC,0.3
22,UAACAGGGGGCCACCGCAGAAGCGAUCACGUCGCAGCCCCUGUCAGAUUCCGGUGGAUCUGCGAAUUCUGCUGUAUAUCUC,0.1
23,UAACAGGGGGCCACCGCAGAAGCGUUCGCGUCGCAGCCCCUGUCAGAUUCUGGUGAAUCUGUGAAUUCUGCUGUAUAUCUC,0.09

row,Variant,self-cleavage
1,UAACAGGGGGCCACCGCAGAAGCGUUCACGUCGCAGCCCCUGUCAGAUUCUGGUGGAUCUGCGAUUUCUGCUGUAUAUCUC,0.19
2,UAACAGGGGGCCACCGCAGAAGCGUUCAGGUCGCAGCCCCUGCCAGAUUCCGGUGAAUCUGCGAAUUCUGCUGUAUAUCUC,0.21
3,UAACAGGGGGCCACCGCAGAAGCGUUCUCGUCGCAGCCCCUGUCAGAUUCUGGUGAAUCUGCGAAUUCUGCUGUAUAUCAC,0.94
4,UAACAGGGGGCCACCGCAGAAGCGUCCACGUCGCAGCCCCUGUCAGACUCUGGUGAAUCUGCGAAUUCUGCUGCUUAUCUC,0.1
5,UAACAGGGGGCCACCGCAGAAGCGCCCACGUCGCAGCCCCUGUCAGAUUCUGGUGAAUCUGCGAACUCUGCUGUAUAUCUC,0.06
6,UAACAGGGGGCCACCGCAGUAGCGUUCUCGUCGCAGCCCCAGCCAGGUUCUGGUGAAUCUGCGAAUUCUGCCGUAUAUCUC,0.06
7,UAACAGGGGGCCACCGCAGAAGUGUUCACGUCGCAGCCCCGGUCAGAUUCUGGUGAAUCUGCGAAUCCUGCUGUUUAUCUC,0.08
8,UAACAGGGGGCCACCGCAGAGGCGUUCUCGUCGCAGCCCCAGUCAGAUUCUGGUGAAUCUGCGAAUUCUGCUGUAUAUCUC,0.34
9,UAACAGGGGGCCACCGCUGAGGCGUUCACGUCGCAGCCCCUGUCAGAUUCAGGUGAAUCUGCGAAUUCUGCUCUAUAUCUC,0.38
10,UAACAGGGGGCCACCGCAGAAGCGUUCACGUCGCAGCCCCUGUCGGACUCAGGUGAAUCUGCGAAUUCUGCUGUAUAUCUC,0.23
11,UAACAGGGGGCCACCGCAGAAGCGUCCACGUCGCAGCGCCGGUCAGAUCCUGGUGAAUCUGGGAAUUCUGCUGUAUAUCUC,0.35
12,UAACAGGGGGCCACCGCAGAAGCGCUCACGUAGCAGCCCCUGUCAGUUUCUGGUGAACCUGCGAAAUCUGCUGUAUAUCUC,0.18
13,UAACAGGGGGCCACCGCAGAAGCGUCCACGUCGCAGCCCCUGCCGGAUUCUGGUGAAUCUGUGAACCCUGCUGUAUAUCUC,0.09
14,UAACAGGGGGCCACCGCAGAAGCGUACACGUCGCAGCGCCUGUCAGAUUCUGGUGAAUCUGCGAAUUCUGCUGUAUAUCUC,0.23
15,UAACAGGGGGCCACCGCAGAUGCGCUCACGUCGCAGCCCCUGUCAGAUUCUGGUGGAUCUGCGAAUUCUGCUGUAUAUCUC,0.54
16,UAACAGGGGGCCACCGCAGAAGCGCUCACGUCGCAGCCCCUGUCAGAUUCUGGUGAAUCUGCGAACUCUGCUGUAUAUCUC,0.08
17,UAACAGGGGGCCACCGCAGAGGCGUUCACGUCGCAGCCGCUGUCAGAUUCUGGUGUAUCUGCGAAUUCUGCCGUAUAUCUC,0.25
18,UAACAGGGGGCCACCGCAGAAGCGUUCACGUCGCAGCCCCUGUCGGAUUCUGGUGAAUCUGCGGAUUCUGCUGUAUUUCUC,0.32
19,UAACAGGGGGCCACCGCAGAAGCGUACUCGUUGCAGCCCCUGUCAGAUUCUGGUGAAUCUGCGAAUUCUGCUGUAUAUCUC,0.26
20,UAACAGGGGGCCACCGCAGAAGCGAUCACGUCGCAGCCCCUGUCAGUUUCAGGUGAAUCUGCGUAUUCUGCUGUAUAUCUC,0.06
21,UAACAGGGGGCCACCGCAGAAGCGUUCGCGUCGCAGCCCCUGUCGGAUUCUGGUGAAUCUGCGAAUUCUGCUGUAUAUCUC,0.15
22,UAACAGGGGGCCACCGCAGAGGCGUUCACGUCGCAGCCCCUGUCUGAUUCUGGUGAAUCUGCGAAUUCUGCUGUAUAUCUC,0.23
23,UAACAGGGGGCCACCGCAGAAGUGUUCACGACGCAGCCCCCGCCAGAUUUUGGUGAAUCUGCGAAUUCUGCUGUAUACCUC,0.04

row,Variant,self-cleavage
1,UAACAGGGGGCCACCGCAGAAGCGUUCACGUCGCAGCUCCUGUCAGAUUCUGGUGAACCUGCGAAUUCUGCUGUAUAUCUC,0.15
2,UAACAGGGGGCCACCGCAGAAGCGCUCGCGUCGCAGCCCCUGUCAGAUUCUGGUGAAUCUGCGAAUCCUGCUGUAUAUCUC,0
3,UAACAGGGGGCCACCGCAGAAGCGCCCGCGUCGCAGCCCCUGUCAGAUUCUGGUGAAUCUGCGAAUUCCGCUGUAUAUCUC,0.25
4,UAACAGGGGGCCACCGCAGAAGCGUUCAUGUCGCAGCCCCUGUCAGAUUCUGGUGAACCUGCGAAUUCUGCUGUAUAUCUC,0.14
5,UAACAGGGGGCCACCGCAGAAGCGCUCUCGUCGCAGCCCCUGACAGAUUCUGGUGAAUCUGCGAAUUCUGCUGUAUAUCUC,0.08
6,UAACAGGGGGCCACCGCAGAAGCGUUCACGUCGCGGCCCCUGACUGAUUCUGGAGAAUCUGCGAAUUCUGCUGUAAAUCUC,1.2
7,UAACAGGGGGCCACCGCAGGGGCGUUCACGUCGCAGCCCCUGUCUGAUUCUGGUGAAUCUGCGAAUUCUGCUGUAUAUCUC,0.09
8,UAACAGGGGGCCACCGCAGAAGCGAUCACGUCGCAGCCCCUGUCAGAUUCUGGUGAAUCGGCGAAUUCUGCUGUAUAUCUC,0.31
9,UAACAGGGGGCCACCGCAGAAGCGUUCACGUCGCAGCCCCUGUCAGGUUCUGGUGAAUCUGCGAAUUCUGCCGUAUAUCUC,1.03
10,UAACAGGGGGCCACCGCAGAAGCGUUCACGUCGCAGCCCCUGUCAGGUUCUGGUGAAUCUGCGAAUUCUGCUGUAUACCUC,1.12
11,UAACAGGGGGCCACCGCAGAAGCGUUCACGUCGCAGCCCCUGUCAGAUUCUGGUGAAUCUGCGGAUUCUGCUGAAUAUCUC,0.79
12,UAACAGGGGGCCACCGCAGAAGCGUUCUCGUCGCAGCCCCAGACAGAUUCUGGUGAAUCUGGGAAUUCUGCUGUAUAUCUC,0.08
13,UAACAGGGGGCCACCGCAGGGGCGUCCACGUCGCGGCCCCUGUCAGAUUCUGGUGAAUCUGCGGAUUCUGCUGUAUAUCUC,0.5
14,UAACAGGGGGCCACCGCAGAAGCGUCCACGUCGCAGCCCCUGUCAGAUUCUGGUGAAUCUGCGAAUUCCGCUGUAUAUCUC,0.04
15,UAACAGGGGGCCACCGCUGAAGCGUUCACGUCGCAGCCUCUGUCAGAUUAUGGUGAAUCUGCGAAUUCUGCUGUAUAUCUC,0.22
16,UAACAGGGGGCCACCGCAGAGGCGUUCACGUCACAGCCCCUGUCAGAUUCUGGUGAAUCUGCGGAUUCUGCUGUAUAUCCC,0.05
17,UAACAGGGGGCCACCACAGAAGCGUCCACGUCGCAGCCCCUGUCAGUUUCAGGUGAAUCUGCGAAUUCUGCUGUAUAUCUC,0.12
18,UAACAGGGGGCCACCGCAGAAGCGCUCACGUCGCAGCCCCUGUCAGAUUCUGGUGAAUCUGCGAAUUCUGCUGUAUACCUC,0.28
19,UAACAGGGGGCCACCGCAGAAGCGCUCACGUCGGAGCCCCUGUCAGAUUCUGGUGAAUCUGCGAAUUCUGCUGUAUACCUC,0.1
20,UAACAGGGGGCCACCGCAGAAGCGUUCACGUCGCAGCCCCUGUCAGAUUCUGGUGAGUCUGCGAAUUCUGCCGUAUAUCUC,0.71
21,UAACAGGGGGCCACCGCAGGAGUGUUCGCGUCGCAGCCCCUGUCAGAUUCUGGUGAAUCUGCGGAUUCUGCUGUAUAUCUC,0.04
22,UAACAGGGGGCCACCGCAGGAGCGUUCACGUCGCAGCCCCUGUCAGAUUCUGGUGAAUCCGCGAAUUCAGCUGUAUAUCUC,0.23
